Data taken from PubChem BioAssay AID624296 (National Center for Advancing Translational Sciences (NCATS), 2012).
Screen size: about 350,000 compounds; about 9,900 (2.8%) were called active. This list was built around the results that the source calls inconclusive (neither active nor inactive); the mix of calls is not that of the screen. The call rests on the fitted dose curve; in most records, active means well fitted activation curve with a large enough effect; inconclusive means small, poorly fitted or top-dose-only effect; inactive means no such curve, though single readings can be large or run the other way. Potencies of inconclusive entries are left out as doubtful fits.

experiment: A quantitative high throughput screen for small molecules that induce DNA re-replication in MCF 10a normal breast cells.; further: nearly all actives have a fitted effect of over 50% in size; on activity, positive = re-replication: % of control where 0% means no effect; conditions: MCF 10A DNA re-replication, Hoechst nuclear intensity, 48 h; activity, positive = re-replication: at 46.1 µM (top of the series)
Potency means the concentration at half of the fitted maximal effect; tags describe the fitted curve by direction and shape.

Row | SMILES | Potency | activity, positive = re-replication
1 | COc1ccc2sc3ccccc3c(=O)c2c1 | inconclusive [activator, single point] | –
2 | Cc1cc2nc(N3C(=O)CNC3=S)sc2cc1C | active: 14.6 µM | –
3 | O=C(CCC(=O)N1CCCC1)Nc1nnc(C2CCCCC2)s1 | inconclusive [activator, single point] | –
4 | COC(=O)C(Cc1ccccc1)NC(=O)CNC(=O)c1sc2ccccc2c1Cl (configuration not stated) | inactive | –
5 | Oc1ccc(Br)cc1-c1ccn[nH]1 | inconclusive [activator, single point] | –
6 | C/C(=N\NC(=S)NCc1ccccc1)c1ccc2ccccc2c1OC(F)F | inconclusive [activator, partial curve, poor fit] | –
7 | CCOc1ncccc1C(=O)NCc1ccccc1 | inactive | –
8 | CCOC(=O)c1ccc(Nc2cc(C)nc(-c3ccccc3)n2)cc1 | inconclusive [activator, partial curve, poor fit] | –
9 | O=[N+]([O-])c1ccc(NNC(=S)Nc2ccc(F)cc2)cc1 | inactive | –
10 | O=C(CCl)NCCNC(=O)c1cc(OCC(F)(F)F)ccc1OCC(F)(F)F | inconclusive [activator, single point] | –
11 | CC1CCCN(CCOCCSc2ccccc2)C1 (configuration not stated) | inconclusive [activator, full curve, poor fit] | –
12 | O=C(Cn1cnc2c(OCc3ccccc3)ncnc21)NCC1CCCO1 (configuration not stated) | inactive | –
13 | Cc1cccc(NC(=S)N2CCOCC2)c1C | inactive | –
14 | COc1cc(OC)cc(C(=O)N/N=C/c2ccc(OC)c(COc3ccc(F)cc3)c2)c1 | active: 5.8 µM | –
15 | CN(CC(=O)NCC(=O)Nc1ccc(F)c(F)c1F)C1CCS(=O)(=O)C1 (configuration not stated) | inconclusive [activator, partial curve, poor fit] | –
16 | COc1cccc(C2CC(c3ccccc3)=NN2S(=O)(=O)c2ccc(C)cc2)c1OC (configuration not stated) | inconclusive [activator, partial curve, poor fit] | –
17 | CCOC(=O)[C@H]1[C@H]2COc3ccc(Br)cc3[C@@H]2N2C(=O)CN(Cc3ccc(Cl)cc3)C(=O)[C@@]12C | inconclusive [activator, single point] | –
18 | Cc1ccc(C(=O)c2c3ccc([N+](=O)[O-])cc3[n+]([O-])n2CCC(N)=O)cc1 | inconclusive [activator, full curve, poor fit] | –
19 | CCOc1ccc(NCc2nnc(SCc3ccccc3Cl)n2-c2ccccc2)cc1 | inconclusive [activator, single point] | –
20 | CC1=C(C(=O)Nc2ccc(C)cc2C)C(c2cccc(Cl)c2)n2nc(C(=O)OC(C)C)nc2N1 (configuration not stated) | inconclusive [activator, partial curve, poor fit] | –
21 | CC(C)(C)OC(=O)[C@H](Cc1ccccc1)NC(=O)c1nc[nH]c1C(=O)N1CCN(C(=O)OC(C)(C)C)CC1 | inconclusive [activator, partial curve, poor fit] | –
22 | CN(C)S(=O)(=O)Oc1ccc(C(=O)Nc2cccc(Cl)c2)cc1 | inconclusive [activator, single point] | –
23 | Cc1ccc(OCC(=O)Nc2ccc(N3CCN(C(=O)c4ccco4)CC3)cc2)c(C)c1 | inconclusive [activator, partial curve] | –

Row | SMILES | Potency | activity, positive = re-replication
24 | COc1cc(NC(=O)c2c(F)cccc2F)nc(OC)n1 | inconclusive [activator, partial curve, poor fit] | –
25 | CC(NC(=O)Cc1ccc(S(=O)(=O)N2CCOCC2)s1)c1ccc(Cl)c(Cl)c1 (configuration not stated) | inconclusive [activator, partial curve, poor fit] | –
26 | Cc1cc(C)c(C)c(OCC(=O)O/N=C(\N)c2ccncc2)c1 | inconclusive [activator, partial curve] | –
27 | Cc1cc(OCC(=O)OCC(=O)NCc2ccco2)ccc1Cl | inconclusive [activator, single point] | –
28 | O=C(c1ccc([N+](=O)[O-])s1)N1CCN(c2cccc(Cl)c2)CC1 | inconclusive [activator, partial curve, poor fit] | –
29 | CCC(=O)NC(=S)N1CCN(c2ccc([N+](=O)[O-])cc2Cl)CC1 | inactive | –
30 | N#CCCn1cc(C(=O)Nc2ccccc2Br)c(-c2cccs2)n1 | inconclusive [activator, single point] | –
31 | CSc1nnc2c(n1)OC(c1ccccn1)N(C(C)=O)c1ccccc1-2 (configuration not stated) | inconclusive [activator, full curve, poor fit] | –
32 | O=C(CN(Cc1ccccc1)C(=O)CSc1nnc(COc2ccccc2)o1)NC1CCCC1 | inactive | –
33 | CCc1cc2c3c(c1)C(C)CC(C)(C)N3C(=O)/C2=C1\SC(=O)NC1=O (configuration not stated) | inconclusive [activator, full curve] | –
34 | CN(C)c1ccc(C=c2c3ccccc3n3c2cc(-c2ccc(Cl)cc2)[n+]3C)cc1 | inactive | –
35 | COC(=O)c1c(NC(=O)c2ccccc2N(C)S(=O)(=O)c2ccccc2)sc2c1CCCC2 | inconclusive [activator, single point] | –
36 | Cc1ccc(-c2ccc([C@H]3[C@H]4C=CC[C@@H](C)[C@@H]4C(=O)N3Cc3ccccc3)c(F)c2)cc1 | inconclusive [activator, partial curve, poor fit] | –
37 | O=C(CN1C(=O)NC2(CCCC2)C1=O)Nc1cc(C(F)(F)F)ccc1N1CCOCC1 | inconclusive [activator, full curve, poor fit] | –
38 | O=[N+]([O-])c1ccc2c(c1)nc(CO)n2Cc1ccccc1 | inactive | –
39 | C=CCOc1ccc(NC(=O)C(=O)NCCCn2ccnc2)cc1 | inactive | –
40 | COCCNC(=O)c1cc(-c2ccccn2)nc2ccc(S(=O)(=O)N3CCC(C)CC3)cc12 | inconclusive [activator, single point] | –
41 | CC(=O)Nc1ccc(S(=O)(=O)Nc2cc(C)cn(Cc3ccccc3)c2=O)cc1 | inactive | –
42 | CC(c1ccccc1)n1c(-c2ccccc2F)n[nH]c1=S (configuration not stated) | inactive | –
43 | CC(=O)Nc1ccc(NC(=O)c2cccc(C(=O)OC(C)C)n2)cc1 | inconclusive [activator, partial curve, poor fit] | –
44 | O=C(NNc1cccc(Cl)n1)Nc1cccc(C(F)(F)F)c1 | inconclusive [activator, full curve, poor fit] | –
45 | Cc1ccc(C(=O)Nc2nccc(-c3cccs3)n2)cc1 | inactive | –
46 | O=C(NNC(=O)c1cccs1)c1ccc(Cl)cc1 | inconclusive [activator, single point] | –

Row | SMILES | Potency | activity, positive = re-replication
47 | CC(C)COC(=O)N1CC(O)CC1C(=O)Nc1ccc2c(c1)OCO2 (configuration not stated) | inactive | –
48 | CCC(C)(C)n1nnnc1C(c1ccc2ncccc2c1)N1CCN(c2nc3ccccc3s2)CC1 (configuration not stated) | inconclusive [activator, single point] | –
49 | Clc1cccc(CN2CCN(c3ncccn3)CC2)c1Cl | inconclusive [activator, single point] | –
50 | Cc1ccccc1-n1c(SCC(=O)NC(N)=O)nc2sc(-c3ccccc3)cc2c1=O | inconclusive [activator, single point] | –
51 | Cc1ccc(-c2ccc(/C=C3\SC(N4CCOCC4)=NC3=O)o2)cc1 | active: 23.1 µM | –
52 | O=C(O)CSc1nc(-c2ccc(Cl)cc2)nc2c1oc1ccccc12 | active: 23.1 µM | –
53 | Cc1sc2ncnc(N3CCC(C(=O)N(C)CC(=O)Nc4ccccc4Br)CC3)c2c1C | inconclusive [activator, partial curve] | –
54 | O=C(Cc1ccc([N+](=O)[O-])cc1)N/N=C/c1cccnc1 | inconclusive [activator, partial curve, poor fit] | –
55 | CC(NC(=O)c1ccc(NC(=O)CC2SC(N3CCCC3)=NC2=O)cc1)c1ccccc1 (configuration not stated) | inactive | –
56 | Fc1ccccc1CSc1ncnc2c1oc1ccccc12 | inconclusive [activator, partial curve, poor fit] | –
57 | O=C(CSc1ccccc1F)NC(=O)NCc1ccco1 | inconclusive [activator, partial curve, poor fit] | –
58 | CC(=O)Nc1ccc(NC(=O)/C=C/c2ccc3c(c2)OCO3)cc1 | inconclusive [activator, single point] | –
59 | CC1(C)C(=O)C=CC(=O)C(C)(C)C(=O)C=CC(=O)C(C)(C)C2=CC=C(O2)C(C)(C)C(=O)C=CC1=O | active: 7.31 µM | –
60 | COc1ccc(NC(=O)CSc2nc3ccccc3nc2N2CCCCC2)cc1 | inconclusive [activator, single point] | –
61 | CCOc1ccccc1N1CCN(C2=C(NS(=O)(=O)c3cccs3)C(=O)c3ccccc3C2=O)CC1 | active: 23.1 µM | –
62 | COc1cc(O)cc(/C=C/c2ccccc2)c1 | inconclusive [activator, single point] | –
63 | CCOC(=O)C1=CC[C@@H](c2cccc(C)c2)N(S(=O)(=O)c2ccc(C)cc2)[C@H]1C(=O)OCC | inconclusive [activator, partial curve, poor fit] | –
64 | COC(=O)c1c(NC(=O)COC(=O)Cn2cnc3ccccc32)sc2c1CCCC2 | inactive | –
65 | N=c1n(Cc2ccccc2)c2ccccc2n1Cc1ccccc1 | inconclusive [activator, partial curve, poor fit] | –
66 | Cn1cccc1C(=O)OCC(=O)NCc1cccs1 | inactive | –
67 | COc1ccc2sc(-c3ccc(N(C)C)cc3)c(C#Cc3cncn3C)c2c1 | – | inconclusive: 182% [activator]
